# Reference: the supplement of paper PMC10498489
# Out of some 2,300 compounds screened, about 330 (14%) showed activity.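 The calls were made as follows: active = median modified Z-score above 1.96; inactive = 1.96 or below.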 Only a part is listed here, and it is no random draw.
# System: HepG2 Srxn1-GFP reporter cells (+30 nM CDDO-Me)
# Test: Srxn1-GFP intensity median modified Z-score relative to plate median; higher = stronger NRF2 / oxidative stress reporter activation, active = hit call of the paper
# Settings: 10 µM; exposure time: 24h
# How it was run: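 The per-plate modified Z-score of GFP intensity, taken as a median across replicates, is what each value represents. Three replicate plates of HepG2 Srxn1-GFP BAC reporter cells were exposed for 24 h to an NRF2 activator at 30 nM combined with compound at 10 μM (≤0.1% DMSO). Cytoplasmic GFP per cell was read from confocal images, excluding any with under 100 cells, and scaling used 1.4826 × median absolute deviation.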
row,Compound,Srxn1-GFP intensity median modified Z-score
1,CCOC(=O)C1=C[C@]2(CC)CCCN3CCc4c(n1c1ccccc41)[C@@H]32 [euspeclibcmpd530],inactive: -0.339
2,CC(=O)c1c(O)c(C)c(O)c2c1OC1=CC(=O)C(C(C)=O)C(=O)C12C (configuration not stated) [euspeclibcmpd1449],active: 12.3
3,O=C1OC2(c3ccc(O)cc3Oc3cc(O)ccc32)c2ccccc21 [euspeclibcmpd769],active: 2.16
4,O=C1CCc2cc(OCCCCc3nnnn3C3CCCCC3)ccc2N1 [euspeclibcmpd725],inactive: 0.342
5,COc1ccc2cc1Oc1ccc(cc1)C[C@H]1c3cc(c(OC)cc3CCN1C)Oc1c(OC)c(OC)cc3c1[C@H](C2)N(C)CC3 [euspeclibcmpd1476],active: 21.7
6,CCOc1ccc(NC(N)=O)cc1,inactive: 0.32
7,CC(C)NCC(O)COc1cccc2ccccc12 (configuration not stated) [euspeclibcmpd2079],inactive: -0.525
8,CN(C)N=Nc1[nH]cnc1C(N)=O [euspeclibcmpd80],active: 60.7
9,CCC(C)n1ncn(-c2ccc(N3CCN(c4ccc(OC[C@H]5CO[C@](Cn6cncn6)(c6ccc(Cl)cc6Cl)O5)cc4)CC3)cc2)c1=O (some centres not stated) [euspeclibcmpd951],active: 2.71
10,CCCCCCc1ccc(O)cc1O [euspeclibcmpd2121],active: 3.73
11,O=C(O)c1cc(-c2ccc(F)cc2F)ccc1O [euspeclibcmpd94],inactive: -0.024
12,CCCCNC(=O)NS(=O)(=O)c1ccc(C)cc1 [euspeclibcmpd298],inactive: 0.1
13,CC(C)(C)NC[C@H](O)c1ccc(O)c(CO)c1 [euspeclibcmpd2266],inactive: -0.495
14,CCn1cc(C(=O)O)c(=O)c2cnc(N3CCCC3)nc21 [euspeclibcmpd1150],inactive: 0.482
15,O=S(=O)(O)CCS [euspeclibcmpd2094],inactive: 0.0126
16,CCCCCCCCCCCCC[N+](C)(C)Cc1ccccc1 [euspeclibcmpd590],active: 3.29
17,CC(=O)Nc1ccc(CC(=O)O)cc1 [euspeclibcmpd1102],inactive: -0.255
18,CNCCC(Oc1ccc(C(F)(F)F)cc1)c1ccccc1 (configuration not stated) [euspeclibcmpd656],inactive: -1.5
19,COc1ccc(C(=O)/C=C/c2ccccc2)cc1 [euspeclibcmpd1565],active: 26.7
20,CCN1CC(CCN2CCOCC2)C(c2ccccc2)(c2ccccc2)C1=O (configuration not stated) [euspeclibcmpd1315],inactive: -0.534
21,C=C1C(=O)O[C@@H]2C[C@@]3(C)CCC[C@H](C)C3=C[C@H]12 [euspeclibcmpd1482],active: 10.2
22,C#C[C@]1(OC(C)=O)CCC2C3CCC4=C[C@@H](OC(C)=O)CCC4C3CC[C@@]21C (some centres not stated) [euspeclibcmpd896],active: 2.28
23,CON=C(C(=O)NC1C(=O)N2C(C(=O)O)=C(COC(N)=O)CSC12)c1ccco1 (configuration not stated) [euspeclibcmpd2072],inactive: -0.532
24,O=c1c2cc(O)c(O)cc2oc2cc(O)c(C3O[C@H](CO)[C@@H](O)[C@H](O)[C@H]3O)c(O)c12 (some centres not stated) [euspeclibcmpd1520],inactive: -0.904
25,CC(=O)OC1CCC2(C)C(=CC=C3C2CCC2(C)C3CCC2C(C)/C=C/C(C)C(C)C)C1(C)C (configuration not stated) [euspeclibcmpd1343],inactive: 1.93
26,NC(N)=O [euspeclibcmpd318],inactive: -0.0793

row,Compound,Srxn1-GFP intensity median modified Z-score
1,Cn1c([N+](=O)[O-])cnc1COC(N)=O [euspeclibcmpd407],inactive: 0.117
2,O=C(CC(=O)c1ccccc1)c1ccccc1 [euspeclibcmpd1779],active: 2.2
3,COC(=O)C(N)CS (configuration not stated) [euspeclibcmpd1038],inactive: 0.359
4,Nc1c(Br)cc(Br)cc1CNC1CCC(O)CC1 (configuration not stated) [euspeclibcmpd1118],inactive: -0.575
5,CC(N)C12CC3CC(CC(C3)C1)C2 (configuration not stated) [euspeclibcmpd797],inactive: -0.0713
6,Cc1cc(O)c(C=O)c2c1C(=O)Oc1c(COC(=O)/C=C/C(=O)O)c(O)c(C(=O)O)c(C)c1O2 [euspeclibcmpd1417],inactive: -0.65
7,OC(CCN1CCCCC1)(c1ccccc1)C1CCCCC1 (configuration not stated) [euspeclibcmpd307],inactive: 0.287
8,NCCCC(N)C(=O)O (configuration not stated) [euspeclibcmpd2233],inactive: -0.13
9,C[C@H]1[C@H]2CCC3C4CC=C5C[C@@H](N(C)C)CC[C@]5(C)C4CC[C@@]32CN1C (some centres not stated) [euspeclibcmpd1801],inactive: -0.317
10,COc1ccc2[nH]c([S+]([O-])Cc3ncc(C)c(OC)c3C)nc2c1 (configuration not stated) [euspeclibcmpd846],inactive: -0.3
11,O=S(=O)(O)CCCS(=O)(=O)O [euspeclibcmpd2416],inactive: -0.356
12,CC(=O)Nc1ccc(O)cc1 [euspeclibcmpd12],inactive: -0.102
13,CC(=O)Oc1c(C)c(C)c2c(c1C)CCC(C)(CCCC(C)CCCC(C)CCCC(C)C)O2 (configuration not stated) [euspeclibcmpd451],inactive: -0.839
14,O=C(O)c1cc(O)c(=O)c2c(O)c(O)ccc2c1 [euspeclibcmpd1973],inactive: -1.01
15,CCOC(=O)C1=C(C)N=C(C)C(C(=O)OC)C1c1cccc([N+](=O)[O-])c1 (configuration not stated) [euspeclibcmpd494],inactive: 0.225
16,OCCOCCN1CCN(C(c2ccccc2)c2ccc(Cl)cc2)CC1 (configuration not stated) [euspeclibcmpd157],inactive: 0.149
17,CC(C)COC(=O)c1ccc(N)cc1 [euspeclibcmpd937],inactive: -0.0579
18,COc1ccc(-c2coc3c(OC)c(OC)cc(O)c3c2=O)cc1 [euspeclibcmpd1614],inactive: -0.0408
19,Cc1ccccc1N1C(=O)c2cc(S(N)(=O)=O)c(Cl)cc2NC1C (configuration not stated) [euspeclibcmpd959],inactive: 0.331
20,C=C1CCC(c2cc(O)oc2O)C(=O)CCC2C1CC2(C)C (configuration not stated) [euspeclibcmpd1822],inactive: -0.357
21,Cc1cc(-n2c(=O)[nH]c(=O)n(C)c2=O)ccc1Oc1ccc(SC(F)(F)F)cc1 [euspeclibcmpd839],active: 2.22
22,CC(Oc1c(Cl)cccc1Cl)C1=NCCN1 (configuration not stated) [euspeclibcmpd482],inactive: 0.104
23,CCc1cccc2c3c([nH]c12)C(CC)(CC(=O)O)OCC3 (configuration not stated) [euspeclibcmpd365],inactive: -0.403
24,CCOc1ccc(C(=O)c2ccc(O)c(O)c2O)cc1 [euspeclibcmpd1369],inactive: 0.486
25,COc1cc(O)c(C)c(O)c1 [euspeclibcmpd1569],inactive: 0.198
26,C[N+](C)(CCOc1ccccc1)Cc1ccccc1 [euspeclibcmpd868],active: 2.62

row,Compound,Srxn1-GFP intensity median modified Z-score
1,C=CC[C@]1(O)CCC2C3=C(C=C[C@@]21C)C1=C(CC3)CC(=O)CC1 (some centres not stated) [euspeclibcmpd848],inactive: 0.704
2,COc1ccc2[nH]cc(CCNC(C)=O)c2c1 [euspeclibcmpd1720],inactive: -0.164
3,CN1C2CCCC1CC(NC(=O)c1nn(C)c3ccccc13)C2 (configuration not stated) [euspeclibcmpd1309],inactive: -0.397
4,CCN(CC)CC#CCOC(=O)C(O)(c1ccccc1)C1CCCCC1 (configuration not stated) [euspeclibcmpd772],inactive: 1.05
5,Cc1ncc([N+](=O)[O-])n1CCO [euspeclibcmpd199],inactive: -0.216
6,OC(CCN1CCCCC1)(c1ccccc1)C1CC2C=CC1C2 (configuration not stated) [euspeclibcmpd811],inactive: -0.0967
7,CCN(Cc1ccncc1)C(=O)C(CO)c1ccccc1 (configuration not stated) [euspeclibcmpd314],inactive: -0.732
8,CC(=O)C12OC(C)(c3ccccc3)OC1CC1C3CC=C4CC(=O)CCC4(C)C3CCC12C (configuration not stated) [euspeclibcmpd1961],active: 5.88
9,CCn1cc(C(=O)O)c(=O)c2ccc(C)nc21 [euspeclibcmpd341],inactive: -0.326
10,COc1ccc2cc(CCC(C)=O)ccc2c1 [euspeclibcmpd594],inactive: 0.246
11,CCCCCC(CC(O)=NO)C(=O)NC(C(=O)N1CCCC1CO)C(C)C (configuration not stated) [euspeclibcmpd1993],active: 11.7
12,CCCCCC(C)N (configuration not stated) [euspeclibcmpd316],inactive: 0.0731
13,C#CCN(C)Cc1ccccc1 [euspeclibcmpd228],inactive: 0.0861
14,Oc1c(I)cc(I)c2cccnc12 [euspeclibcmpd2015],inactive: 1.62
15,O=C(CCCN1CC=C(n2c(=O)[nH]c3ccccc32)CC1)c1ccc(F)cc1 [euspeclibcmpd363],inactive: 0.0802
16,COc1cc([C@@H]2c3cc4c(cc3C(OC3O[C@@H]5COC(C)O[C@H]5[C@H](O)[C@H]3O)C3COC(=O)C32)OCO4)cc(OC)c1O (some centres not stated) [euspeclibcmpd356],active: 2.43
17,CCn1cc(C(=O)O)c(=O)c2cnc(N3CCNCC3)nc21 [euspeclibcmpd1020],inactive: -0.229
18,Cc1ccc(S(=O)(=O)NC(=O)NN2CC3CCCC3C2)cc1 (configuration not stated) [euspeclibcmpd1166],inactive: -0.136
19,O=c1c(O)cccc2cc(O)c(O)c(O)c12 [euspeclibcmpd1723],inactive: -0.877
20,CONC(=O)c1cc(-c2ccccc2)nc2ccccc12,inactive: 1.04
21,Cc1ncc(CSSCc2cnc(C)c(O)c2CO)c(CO)c1O [euspeclibcmpd1217],inactive: -0.667
22,CC(=O)Oc1cccc2c1C(=O)c1c(OC(C)=O)cc(C(=O)O)cc1C2=O [euspeclibcmpd1072],active: 4.68
23,Nc1ccc(C(=O)NCC(=O)O)cc1 [euspeclibcmpd518],inactive: 0.0841
24,CC1(C)OC(=O)NC1=O [euspeclibcmpd99],inactive: 0.00531
25,COc1cc(/C=C/C(=O)O)cc(OC)c1OC [euspeclibcmpd1646],inactive: -0.063
